Assay results from the RNAGym collection of RNA variant scans (doi:10.1073/pnas.2313332121).
Variants at the background level are over-represented here.

B1: TPR 5TU (parent)
chain: GGAUCUUCUCGAUCUAACAAAAAAGACAAAUCUGCCACAAAGCUUGAGAGCAUCUUCGGAUGCAGAGGCGGCAGCCUUCGGUGGCGCGAUAGCGCCAACGUUCUCAACUAUGACACGCAAAACGCGUGCUCCGUUGAAUGGAGUUUAUCAUG

Variants of: B1
Assay: polymerase ribozyme fitness, log enrichment relative to wild type (log ratio); higher = more active; in vitro selection for triplet polymerase activity
In short: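 Each subunit of a heterodimeric triplet polymerase ribozyme was represented by a PCR-built, transcribed mutant library that underwent triplicate single-round in vitro selection with frozen incubation at −7 °C. Extended constructs were recovered by gel excision, streptavidin-bead capture and RT-PCR, and Illumina sequencing of input and output libraries kept genotypes with ≥10 input reads and ≥1 read per output. Fitness is the logarithm of genotype enrichment relative to wild-type enrichment, from inverse-variance-weighted replicate averages, with a logarithm base of 2.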

Row | Variant | polymerase ribozyme fitness (log ratio)
1 | GGAUCUUCUCGAUGUAACAAAAAAGACAAAUCUGCCACAAAGCUUGAGAGCAUCUUCGGAUGCAGAGGCGGCAGCCUUCGGUGGCUCGAUAGCGCCAACGUUCUCAACUAUGACACGCAAAACGCGUGCUCCGUUGAAUGAAGUUUAUCAUG [C14G G86U G141A] | ≤ -4.2
2 | GGAUCUUCUCGAUGUAACAAAAAAGACAAAUCUGCCACAAAGCUUGAGAGCAUCUUCGGAUGCAGAGGCGGCAGCCUUCGGUGGCGCGAUAUCGCCAACGUUCUCAACUAUGACACGCAAAACGCGUGCUCCGUUGAAUGGAGUUUAUCAUG [C14G G92U] | -2.61
3 | GGAUCUUCUCGAUGUAACAAAAAAGACAAAUCUGCCACAAAGCUUGAGAGCAUCAUCGGAUGCAGAGGCGGCAGCCCUCCGUGGUGCGAUAGCGCCAACGUUCUCACUUAUGACACGCAAAACGCGUGCUCCGUUGAAUAGAGUUUAUCAUG [C14G U55A U77C G80C C85U A107C C108U G140A] | ≤ -4.2
4 | GGAUCUUCUCGAUGUAACAAAAAAGACAAAGCUGCCACAAAGCUUGAGAGCAUCUUCGGAUGCAGAGGCGGCAGCCUUCGGUGGCGCGAUAGCGCCAACGUUCUCAACUAUGACACGCAAAACGCGUGCUCCGUUGAAUGGAGUUUAUCAUG [C14G U31G] | -2.12
5 | GGAUCUUCUCGAUGUAACAAAAAAGACAAAUCUGCCACAAAGCUUGAGAUCAUCUUCGGAUGCAGAGGCGGCAGCCUUCGGUGGCGCGAUAGCGUUAACGUUCUCAACUAUGACGCGCAAAACGCGUGCUCCGUUGAAUGGAGUUUAUCAUG [C14G G50U C95U C96U A115G] | -4.1
6 | GGAUCUUCUCGAUGUAACAAAAAAGACAAAUCUGCCACAAAGCUUGAGAGCAUCUUCGGAUACAGAGGCGGCAGCCUUCGAUGGCGCGAUUGCGCCAACGUUCUCAACUAUGACACGCAAAACGCGUGCUCCGUUGAAUGGAGUUUAUCAUG [C14G G62A G81A A91U] | ≤ -4.2
7 | GGAUCUUCUCGAUGUAACAAAAAAGACAAAUCUGCCACAAAGCUUGAGAGCAUCAUCGGAUGCAGAGGCGACGGCCUUCGGUGGCGCGAUAGCCCCAACGUUCUCAACUCUGAGACGCAAAACGCGUGCUCCAUUGAAUGGAGUUUAUCAUG [C14G U55A G71A A73G G94C A110C C114G G133A] | ≤ -4.2
8 | GGAUCUUCUCGAUGUAACAAAAAAGACAAAUCUGCCACAAAGCUUGAGAGCAUCACCGGAUGCAGAGGCGGCAGCCUUCGGUGGCGCGAUUGCGCCAACGUUCUCAACUAUGACACGCAAAACGCGUGCUCCGUUGAAUGGAGUUUAUCAUG [C14G U55A U56C A91U] | ≤ -4.2
9 | GGAUCUUCUCGAUGUAACAAAAAAGACAAAUCUGCCACAAAGCUUGAGAGCAUCUUCGGAUGCAGAGUCGGCAGCCUUCGGUGGCGUGAUAGCGCCAACGUUCUCAACUAUGACACGCAAAACGCGUGCUCCGUUGAAUGGAGUUUAUCAUG [C14G G68U C87U] | ≤ -4.2
10 | GGAUCUUCUCGAUGUAACAAAAAAGACAAAUCUGCCACAAAGCUUGAGAGCAUCUUCGAAUGCAGAGGCGGCAGCCUUCGGUGGCGGGUUAGCGCCAACGUUCUCAACUAUGACACGUAAAACGCGUGCUCCGUUGAAUGGAGUUUAUGAUG [C14G G59A C87G A89U C118U C149G] | ≤ -4.2
11 | GGAUCUUCUCGAUGUAACAAAAAAGACAAAUCUGCCACAAAGCUUGAGAGCAUCUUCGGAUGCAGAGGCGGCAGCCUUCGGUGGCGCGAUAGCACCCACGUUCUCAACUAUGACACGCAAAACGCGUGCUCCGUUGAAUAGAGUUUAUCAUG [C14G G94A A97C G140A] | ≤ -4.2
12 | GGAUCUUCUCGAUGUAACAAAAAAGACAAAUCUGCCACAAAGCUUGAGAGCAAAUUCGGAGUCAGAGGCGGCAGCCUUCGGUGGCGCGAUAGCGCCAACGUUCUCAACUAUGACACGCAAAACGCGUGCUCCGUUGAAUGGAGUUCAUCAUG [C14G U53A C54A U61G G62U U146C] | ≤ -4.2
13 | GGAUCUUCUCGAUGUAACAAAAAAGACAAAUCUGCCACAAAGCUUGAGAGCAUCUUCGGAUGCAGAGGCGGCAGCCUUCGGUGGCGCCAUAGCGCCAACGUUCUCAACUAUGACACGCAAAACGGGUGCUCCGUUGAAUGGAGUUUAUCAUG [C14G G88C C125G] | -4.08
14 | GGAUCUUCUCGAUGUAACAAAAAAGACAAAUCUGCCACAAAGCUUGAGAGCAUCUACGGUUGCAGAGGCGGCAGCCUUCGGUGGCGCUAUAGGGCCAACGUUCUCAACUAUGACACGCAAAACGCGUGCUCCGUUGAAUGGAGUUUAUCAUG [C14G U56A A60U G88U C93G] | ≤ -4.2
15 | GGAUCUUCUCGAUGUAACAAAAAAGACAAAUCUGCCACAAAGCUUGAGAGCAUCUUCGGAUCCAGAGGCCGCAGCCUUCGGUGGCGCGAUUGCGCCAACGUUCUCAACUAUGACACGCAAAACGCGUGCUCCGUUGAAUGGAGUUUAUCAUG [C14G G62C G70C A91U] | ≤ -4.2
16 | GGAUCUUCUCGAUGUAACAAAAAAGACAAAUCUGCCACAAAGCUUGAGAGCAUCUUCGGAUGCAGAGGCGCCAGCCUUCGGUGGCGCGAUAGCGCGAACGUUCUCAACUAUGACACGCUAAACGCGUGCUCCGUUGAAUGGAAUUUAUCAUG [C14G G71C C96G A119U G143A] | ≤ -4.2
17 | GGAUCUUCUCGAUGUAACAAAAAAGACAAAUCUGCCACAAAGCUUGAGAGCAUCAUUGGAUGCAGAGGCGGCAGCCUUCGGUGGCUCGAUAGCGCCAACGUUAUCAACUAUGACACGCAAAACGCGUGCUCCGUUGAAUGGAGUUUAUCAUG [C14G U55A C57U G86U C103A] | ≤ -4.2
18 | GGAUCUUCUCGAUGUAACAAAAAAGACAAAUCUGCCACAAAGCGUAAGAGCUUCUUCGGAUGCAGAGGCGGCAGCCUUCGGUGGCGAGAUAGCGCCAAGGUUCUCAACUAUGACACGCAAAACGCGUGCUCCGUUGAAUGGAGUUUAUCAGG [C14G U44G G46A A52U C87A C99G U151G] | ≤ -4.2
19 | GGAUCUUCUCGAUGUAACAAAAAAGACAAAUCUGCCACAAAGCGUGAGAGCAUCUUCGGAUGCAGAGGCGGCGGCCUUCGGUGGCGCCAUCGCGCCAACGUGCUCAACUAUGACACGCAAAACGCGCGCUCCUUUGAAUGGAGUUUAUCAUG [C14G U44G A73G G88C A91C U102G U127C G133U] | ≤ -4.2
